Binding signal data for 22 molecules are collected here from paper PMC12136788.

First the molecules themselves.
T1: UNK ZnF1-3 (human, UniProt Q9C0B0 31-174)
T1 sequence: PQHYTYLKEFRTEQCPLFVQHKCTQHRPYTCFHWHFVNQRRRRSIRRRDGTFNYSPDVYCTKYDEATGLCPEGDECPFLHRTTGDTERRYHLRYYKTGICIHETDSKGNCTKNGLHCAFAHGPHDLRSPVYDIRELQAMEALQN

B1: chr2:59185810:59185811:+_ENSMUSG00000026991_ENSMUST00000151452|mus_hu|FALSE|FALSE (ssRNA)
RNA: GGGAGUUCUACAGUCCGACGAUCCCCAUCCUUUUUAUAAAUGCUCCGGAGGUCCCGAUAUUGCCAUAAUGUAUUCAAGACCUGGGCUGCUGCCUUCACCACUUUCAGAGAUGAUCUGUCGCCCCUGCCUUUGGUUAUGUUCACCAACAGAGGAUUGAGCAUCA
B2: 28393741_28401348_240_CDS_ENSMUSG00000004056_ENSMUST00000051356|mouse|control|control (ssRNA)
RNA: GGGAGUUCUACAGUCCGACGAUCAGGGGCCUCGGGCCUCUCCUUAUACCCAAUGAAAGAUCCAUCACUCUUCAGAAGGAAGUACCGUGGCCUCCAGGUCUUGAUGUAUUCACCACGUUUGUGGAGCCAGCCUUCUUUGAUGACCAACAGAGGAUUGAGCAUCA
B3: chr1:225611761:225611762:-_ENSG00000143815_ENST00000272163|hu_mus|motif|central (ssRNA)
RNA: GGGAGUUCUACAGUCCGACGAUCCCAGGCCAUCGGCCUCUGACCACUUCACCCUCAACAAACUUCCUACUUGGCAUUUUCGGAAAUUAGUCUGGCCGCGCUCCGGCGGGAACUCCAGCCACUCCAGGACAGUCACCAGCAGCCCAACAGAGGAUUGAGCAUCA
B4: chr3:144353948:144353949:-_ENSMUSG00000037062_ENSMUST00000163279|mus_mus|FALSE|FALSE (ssRNA)
RNA: GGGAGUUCUACAGUCCGACGAUCAAAACUCCAAAGCCAAGAGACCCUAGUAAGGCCUAGUAUUUAAGUCAUCUGAUUCCUAUUGGGCAGCAAGGUAAAAAGGAGUUUUUACUUUAUUCUUUGGCUAUUGUAUCUAAUAAAUGACAACAGAGGAUUGAGCAUCA
B5: chr3:132390928:132390929:+_ENSG00000081307_ENST00000264991|hu_mus|motif|central (ssRNA)
RNA: GGGAGUUCUACAGUCCGACGAUCACUGGCUGCGCAGACGCCUUCUCGUUUCAGGGUUUUUUCAUCAAUAUUUGAAGCAACGGCAAGUGGUGGCGCACACGCGAAGCAAGCCGACUCUCCAGGGAUCAUCAGCUGGAUGUGCCCCAACAGAGGAUUGAGCAUCA
B6: 34195510_34199789_1269_3pUTR_ENSMUSG00000021936_ENSMUST00000111945|mouse|control|control (ssRNA)
RNA: GGGAGUUCUACAGUCCGACGAUCCUAAAGGAGACGGCUGCCCUCUUAUGACUCCAUUCUUAGUUCGUUCCUCCAAAUCCAUUACCUCCUUGUAUAUCAGUUCUUUCCACUCCUCUAUUGUGUGCUCCCUCUCAUCUAACUGCUCAACAGAGGAUUGAGCAUCA
B7: chr12:111890518:111890519:-_ENSG00000204842_ENST00000389154|hu_hu|motif|central (ssRNA)
RNA: GGGAGUUCUACAGUCCGACGAUCUUGGAUGUUACAAGAAAUCAACAUAUAUAUUUUAAAAACAAAAUAAAUGAAAUUCGGGUUUUCUGUGCUUCCAGUUGGUAGAAGCAGUAGAAGGGAGGAGGGAAUUUGGCCUUUCGGUUCCAACAGAGGAUUGAGCAUCA
B8: chr14:76904430:76904431:+_ENSMUSG00000022010_ENSMUST00000022587|mus_mus|mus_mus_mus_hu_True|1_88 (ssRNA)
RNA: GGGAGUUCUACAGUCCGACGAUCUGCAGCCAAAAACACCCUCGUGGCGGGAGGGAGGGAACACCAGCAGCCUUGUAUAAGCUAGAUAAAAUCUUCUGGCUUUCCGCAGCCCAGGGAGAAACAGAAAACGGCAGCCCUCGAGUGCAACAGAGGAUUGAGCAUCA
B9: chr9:45776876:45776877:-_ENSMUSG00000003131_ENSMUST00000172450|mus_mus|FALSE|FALSE (ssRNA)
RNA: GGGAGUUCUACAGUCCGACGAUCGAUCAGUUCAUGGAGGGGUUUGCAGAUCUUUGCAUAGCCCCCUCCUGUGAGAUGAAGAAAAUCAAACAUGUCGUGGCAGGAGAUGGCACCGUCCGAGUGCACGAAGCCCCCGUCUAUAUCCAACAGAGGAUUGAGCAUCA
B10: chr5:132424205:132424206:+_ENSG00000170606_ENST00000304858|hu_hu|FALSE|FALSE (ssRNA)
RNA: GGGAGUUCUACAGUCCGACGAUCGAUGGCACACUGCAAUGCACAGCCUCGAGUGACAGCUUCAUCAGCAUUUAAUGUUGUACUAAGUUCUUUACCGAAAAAUUUGCUGAUCUUCUCUUUUACCGCAGGGAUUCGUGUAGCACCCAACAGAGGAUUGAGCAUCA
B11: 25290430_25290550_1042_CDS_ENSMUSG00000026944_ENSMUST00000102919|mouse|control|control (ssRNA)
RNA: GGGAGUUCUACAGUCCGACGAUCCAGCAGGGCAAGGGCUGAUAGGACAUCCACAUCCUGCAGAAGUUUCUGGGCAUCCAGCAGGUCCCCUAAGAGUGCCGGCAGGCUCUGUGGGGACGGUGCCUGUGGCUGGGGAUCUGAGCCCAACAGAGGAUUGAGCAUCA
B12: chr15:42481402:42481403:-_ENSG00000166887_ENST00000318006|hu_mus|motif|central (ssRNA)
RNA: GGGAGUUCUACAGUCCGACGAUCCUUUGAGACUGUAGUGAUUUGUUGAAAUGUCAGUAAGUCAUGGACAUAAAUGUUGUUUUCGGACAAGCUGACCAGAAUCUUAAACUGGGAAACCACAUGGAUCUGCUGGAUCUUUUUGGACAACAGAGGAUUGAGCAUCA
B13: 20240214_20245657_251_3pUTR_ENSMUSG00000001924_ENSMUST00000001989|mouse|control|control (ssRNA)
RNA: GGGAGUUCUACAGUCCGACGAUCGACUGUGCAGGGGAGCAGUUAGAACCCGGCUUUGGAUCAGGCCCGGACACGCGACGUUUCUUGGACAGCGGCGAGCUGGACAUCAAUGCCGGUUCCCCGGGUCGUGCCGCCGCCAACUCCCAACAGAGGAUUGAGCAUCA
B14: chr12:103220247:103220248:+_ENSMUSG00000041781_ENSMUST00000047357|mus_hu|FALSE|FALSE (ssRNA)
RNA: GGGAGUUCUACAGUCCGACGAUCCAGGGAAUCAAUAAUAUCCAUAGAAAAGUGCUCAUCCCAGCCACAGUCCAAUAAAAAUCUAAACUCAUCAACUUGGAGAAGAUAGCAAAGGGCAGAUUCUUCUUGGACCCCAGAAAGGGUCAACAGAGGAUUGAGCAUCA
B15: chr1:82725849:82725850:+_ENSMUSG00000026150_ENSMUST00000078332|mus_hu|FALSE|FALSE (ssRNA)
RNA: GGGAGUUCUACAGUCCGACGAUCGGACCCUCAUUCGCUGACUAAUGCCUUCAGUAUAUUCCAUUUCGUACUGAAUUCGACUAAUUUCUGCCAUCUCAGCAGCAGUGGGAGAAGGAAAUGCUGCCCUGCUCACCAAAUGUGUAACAACAGAGGAUUGAGCAUCA
B16: chr1:225977404:225977405:+_ENSG00000143742_ENST00000304786|hu_hu|motif|central (ssRNA)
RNA: GGGAGUUCUACAGUCCGACGAUCAAUACAUGGAUCUGACAAAAUGGUUACAUUUAAUGUUCUUUUAAAGAAAGAUGAACGGAAUUUAAGAAGAAUUGGUUUUUCCUAAUAUCUCAUUUUCAAAUUACUGAUACAAAUUUGCCACAACAGAGGAUUGAGCAUCA
B17: chrX:135579806:135579807:+_ENSG00000102241_ENST00000218364|hu_hu|FALSE|FALSE (ssRNA)
RNA: GGGAGUUCUACAGUCCGACGAUCCCAAGUUGGUGCCGCUCAUGUUUCCUACCUAGCUCAGGAGCAGGGUUCAGAAGAACUAAGAGGCCGAAAUGACGCUGGAGCUGAGCAGAGAAAGGGAGGUCAACCGCGCUCUGCUCGCGCCAACAGAGGAUUGAGCAUCA
B18: 80078447_80078756_806_CDS_ENSMUSG00000022412_ENSMUST00000023048|mouse|control|control (ssRNA)
RNA: GGGAGUUCUACAGUCCGACGAUCCUGCAGGGACAUGCGGAGUCGUGACUUCUUCAAGUCUACCUGGCCCCUCCUGGCCAAUGGUUUGGGCCGGGGUGGGCAGAAUGUAUCUGUGUCAAAGGCAGAAGAGUCUGUGGGAAGGGUCAACAGAGGAUUGAGCAUCA
B19: 98488212_98488546_5419_CDS_ENSMUSG00000079487_ENSMUST00000087948|mouse|control|control (ssRNA)
RNA: GGGAGUUCUACAGUCCGACGAUCUGCAUGGUGUAGAAGGUCUGGAGGCACUGUCACACCAUAGGGGCCACUCCGACCUGGCCCCAUGCCAUAGUCCUCGUUCUUGGUGGCUGGCUGGCUGCGUUUUUUGCCCUUGGUAGACUUCAACAGAGGAUUGAGCAUCA
B20: chr9:95013113:95013114:-_ENSG00000196305_ENST00000443024|hu_hu|hu_hu_hu_mus_False|28_98 (ssRNA)
RNA: GGGAGUUCUACAGUCCGACGAUCCUCAGUCAGAAAGGGUGUGUAGGGGGCCAUCAGUCUGCACAGAGAAAGCAGGACACUGAACAGUGUCUCCAGAGCCAUGACACAAUCCUCCAUCCCACUCUCACCCUUUAACCUCCUCCUCAACAGAGGAUUGAGCAUCA
B21: 37126873_37304194_710_3pUTR_ENSG00000147905_ENST00000336755|human|control|control (ssRNA)
RNA: GGGAGUUCUACAGUCCGACGAUCCUAUCUGGGCCUCAAUGUCUUUGUCACUGAUGGACCAGUUUAUACCAUCUUCUCCUUCAGUAACAGAGUUUUCACAUCCCACAAGGUUGAGAAGGAUAUCAUCAUCUUUAUCAUCUACUUCAACAGAGGAUUGAGCAUCA
B22: chrX:17854524:17854525:+_ENSMUSG00000037369_ENSMUST00000044484|mus_hu|FALSE|FALSE (ssRNA)
RNA: GGGAGUUCUACAGUCCGACGAUCUCGUGAAUUACUCUCAUUAGUGACAAAAAGCAGAUCAAAAACCUCCACUUCACAAAUGCUACAGUAAUGAGCUGGUUCUUCUUUUGUCCGCCCAUGCCAUAUAAUCUCUUUUCCUGCAGCCAACAGAGGAUUGAGCAUCA

The list shows a part of the results.

This assay addresses T1, UNK ZnF1-3. Nature of the assay: nsRBNS (natural sequence RNA bind-n-seq); RBNS binding buffer (assumed for nsRBNS): 25 mM Tris pH 7.5, 150 mM KCl, 3 mM MgCl2, 0.01% Triton X-100, 500 ug/ml BSA, 20 U/ml SUPERase-In, 4 C; UNK is unkempt and MSI1 is Musashi-1; names of the RNAs are library labels; protein concentration not given here; high values mean tight binding.
B1: the binding signal is 0.873 enrichment R. Next, B2: 0.949 enrichment R; B3: 0.981 enrichment R; B4: 1.33 enrichment R.

B5 gave a binding signal of 1.08 enrichment R. B6 displayed a binding signal of 0.625 enrichment R. Regarding B7, the binding signal was 1.46 enrichment R. For the molecule B8, the binding signal came out at 1.68 enrichment R.

For B9, the binding signal was 0.848 enrichment R. B10 registered a binding signal of 1.11 enrichment R.

Regarding B11, the binding signal was determined as 1.09 enrichment R. B12 came in with a binding signal of 0.58 enrichment R. Consider B13, for which the binding signal came out at 0.685 enrichment R. As to B14, the binding signal stood at 1.6 enrichment R.

B15 gave a binding signal of 0.934 enrichment R. With B16, the binding signal is 0.592 enrichment R. B17 yielded a binding signal of 1.09 enrichment R. In the case of B18, the binding signal came out at 0.925 enrichment R. For B19, the binding signal is 0.916 enrichment R. As for B20, the binding signal was determined as 1.2 enrichment R. Next, B21: 0.748 enrichment R; B22: 0.725 enrichment R.
